Data taken from a collection of fitness landscapes (doi:10.1016/j.celrep.2020.107928).
The full ranking holds about 81,000 sequences; the median of “one-hybrid fitness for binding parS DNA” is about -0.17, and the highest 2% start at about 0.51. Some of the results follow.

B1: Caulobacter ParB omega fusion; a variant is named by its letters at X, in order, B8GW30 (parent)
chain: MESVVVGEPGMSEGRRGLGRGLSALLGEVDAAPAQAPGEQLGGSREAPIEILQRNPDQPRRTFREEDLEDLSNSIREKGVLQPILVRPSPDTAGEYQIVAGERAWRAAQRAGLKTVPIMVRELDDLAVLEIGIIENVQRADLNVLEEALSYKVLMEKFERTQENIAQTIGKSXSHVANXMRLLXLPDEVQSYLVSGELTAXHARAIAAAADPVALAKQIIEGGLSVRETEALARKAPNLSAGKSKGGRPPRVKDTDTQALESDLSSVLGLDVSIDHRGSTGTLTITYATLEQLDDLCNRLTRGI

Variants of: B1
Assay: one-hybrid fitness for binding parS DNA (scaled: cognate 1, non-cognate 0); higher = stronger binding
Settings: with parS DNA site
Method in brief: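 Bacterial one-hybrid selection in E. coli USO rpoZ- hisB- pyrF- with a HIS3 reporter carrying the site 19 bp from the promoter, screening Caulobacter ParB libraries with four specificity codons randomised (NNS). Cells grew 48 hours at 37°C on M9-minus-histidine plus 0.1 mM IPTG and 5 mM 3-AT. Plasmids before and after selection were Illumina-sequenced, three replicate libraries pooled, and variants under 10 reads dropped. Fitness is the log change in variant-to-wild-type read ratio, rescaled to cognate 1, non-cognate 0.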

one-hybrid fitness for binding parS DNA, 0.208:
IQNA

one-hybrid fitness for binding parS DNA, 0.581:
RHIT

one-hybrid fitness for binding parS DNA, 0.475:
RIYY

one-hybrid fitness for binding parS DNA, 0.719:
RNYC

one-hybrid fitness for binding parS DNA, 0.943:
RQRC

one-hybrid fitness for binding parS DNA, 0.203:
KLYM

one-hybrid fitness for binding parS DNA, 0.226:
RSAH

one-hybrid fitness for binding parS DNA, 0.4:
RTRH

one-hybrid fitness for binding parS DNA, 0.229:
RLQF

one-hybrid fitness for binding parS DNA, ≤ 0.2:
STKH
CWTS
NMTR
EAGG
ELNM
RPHS
NVQM
QNKV
GSHF
TLQS
HPKI
FESR
ISDC
GERY
EWTR
TDTT
KFCG
RSAI
YMDG
DRTE
GSLL
EEAD
WPVG
YPRY
AKHG
ENMS
DIIN
ISHY
VPSM
SIMC
AGIE
DGER
RIAI
APRE
NMPL
GNGS
QSIA
KAKS
AVCT
GHQC
EGGY
WAPL
AKKY
HCIR
GKFG
PDSL
FRYT
WHPS
DFKC
DGQR
QRHD
YCIG
EPSR
AREW
QTST
IYNC
ASET
NINS
FLTY
HMLI
ECPG
RFTV
PWEK
SIAA
HEIA
RPVF
SFAS
VFVV
CGTR
DRRR
NDRI
QCDT
QRRF
NSDT
TNCK
LSNQ
LSTE
SEAR
AYSI
ACKL
GRCF
NCYS
VNYT
GCWG
LCRW
PFDN
SHLE
VDCS
RLKI
GRMY
VLQV
HQMS
WFQG
LHSS
LGPG
RFAI
MPSG
RERH
HLGC
ENLA
VCCT
KKYD
HWHG
TSAS
CLMC
VCML
QRPR
NMAF
MNKG
SAFW
WDKP
NVDD
VEQG
NLHV
TQDV
LECT
ANNS
VSRC
MAGR
DNSL
AHNK
EVQC
RFCK
GDLV
YIHF
RKHW
TNRT
ELEM
QAHD
PDNT
GGLT
LSAP
VCHT
ARSL
PNYT
HAVV
SLMV
PSCE
PNLW
RGDM
EFFS
SMIS
VMHH
QAWD
RDHV
SSWS
NHSP
SCNF
SKSF
AGES
PFQY
VEPC
WCQR
RGCL
YMIG
DNPR
KKVH
TPTH
PFHT
TPGF
QHWR
WMHR
PYMD
NDTG
LPEG
QLHR
ATEP
TGTC
QLRC
THIT
SHDM
VMLC
QGNF
FRQG
QAFH
CRTF
AKIR
PDST
YCDR
WYLC
DTLT
YPTN
SINF
SVHI
QYIS
YISR
VKVF
SDHR
CYWS
PSVV
SAKE
PPAF
EADY
RPQL
VAQY
PDPC
QRQG
PRHP
QQWM
MVSL
NYRC
HAWM
AFVT
YKGG
IDPE
STPQ
ISPY
MAKT
SREN
LKRW
LAIE
KKRS
NLKK
VDSH
THMC
RATQ
QSTW
NCHT
SFNG
SHGL
TDSY
MCCL
SDGQ
HLGD
PDVV
RNYP
VHSM
ADDA
QVTQ
TAFN
NDWG
YMTV
YMCR
HGNV
NPRC
KHKY
CSSN
LKCS
QPLC
EFNT
MAAM
NSKV
PLNM
TESP
FYES
LVSY
TLYR
WVTA
DHGS
LWVP
NTHH
QCAV
SPKK
IDGS
QRQS
QTAN
MNYA
PPNC
SCPN
IETY
DVLC
MNVG
ASYT
QFTN
GWSG
YKHT
KRSC
HGST
NMSR
MTAN
QQQG
MPKY
PNLY
ANVT
NKIC
RGRF
QWTI
PEYI
MLLV
EQSN
QPSW
HEES
DKAK
MEVR
QMCM
PERC

one-hybrid fitness for binding parS DNA, 0.454:
RGFC

one-hybrid fitness for binding parS DNA, 0.937:
RAKG

one-hybrid fitness for binding parS DNA, 0.5:
RMLY

one-hybrid fitness for binding parS DNA, 0.573:
RNFT

one-hybrid fitness for binding parS DNA, 0.338:
RLMM

one-hybrid fitness for binding parS DNA, 0.67:
RKHA

one-hybrid fitness for binding parS DNA, 0.247:
RIRF

one-hybrid fitness for binding parS DNA, 0.312:
NVVW

one-hybrid fitness for binding parS DNA, 0.796:
RLKA

one-hybrid fitness for binding parS DNA, 0.932:
RLNS

one-hybrid fitness for binding parS DNA, 0.901:
RYEG
